# Measurements taken from PMC9911399, “Two distinct binding modes provide the RNA-binding protein RbFox with extraordinary sequence specificity”.
# Positions count from the first letter of the chain named. Some of the results follow.
# T1: RBFOX1 RRM (Homo sapiens, UniProt Q9NWB1 109-208)
# T1 sequence: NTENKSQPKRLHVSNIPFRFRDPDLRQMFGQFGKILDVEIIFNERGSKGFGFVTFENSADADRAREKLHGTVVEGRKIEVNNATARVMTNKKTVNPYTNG
# B1: UUUUAUG (DNA:RNA)
# RNA: GGGAGACCGGAAUUCAGAUUGUCCUUUUAUGUUAAAUCCCGUCGUAGCCACCA
# DNA 1: CAATCTGAATTCCGGTCTCCC
# DNA 2: TGGTGGCTACGACGGGATT
# B2: UGAAUAU (DNA:RNA)
# RNA: B1 RNA with U26G, U27A, U28A, A29U, U30A, G31U
# DNA 1: CAATCTGAATTCCGGTCTCCC
# DNA 2: TGGTGGCTACGACGGGATT
# B3: CUGGGCC (DNA:RNA)
# RNA: B1 RNA with U25C, U27G, U28G, A29G, U30C, G31C
# DNA 1: CAATCTGAATTCCGGTCTCCC
# DNA 2: TGGTGGCTACGACGGGATT
# B4: UGGGGCA (DNA:RNA)
# RNA: B1 RNA with U26G, U27G, U28G, A29G, U30C, G31A
# DNA 1: CAATCTGAATTCCGGTCTCCC
# DNA 2: TGGTGGCTACGACGGGATT
# B5: UUCCUGG (DNA:RNA)
# RNA: B1 RNA with U27C, U28C, A29U, U30G
# DNA 1: CAATCTGAATTCCGGTCTCCC
# DNA 2: TGGTGGCTACGACGGGATT
# B6: CUAGGUC (DNA:RNA)
# RNA: B1 RNA with U25C, U27A, U28G, A29G, G31C
# DNA 1: CAATCTGAATTCCGGTCTCCC
# DNA 2: TGGTGGCTACGACGGGATT
# B7: GUGGAUU (DNA:RNA)
# RNA: B1 RNA with U25G, U27G, U28G, G31U
# DNA 1: CAATCTGAATTCCGGTCTCCC
# DNA 2: TGGTGGCTACGACGGGATT
# B8: UAAUACA (DNA:RNA)
# RNA: B1 RNA with U26A, U27A, U30C, G31A
# DNA 1: CAATCTGAATTCCGGTCTCCC
# DNA 2: TGGTGGCTACGACGGGATT
# B9: GUCUCUU (DNA:RNA)
# RNA: B1 RNA with U25G, U27C, A29C, G31U
# DNA 1: CAATCTGAATTCCGGTCTCCC
# DNA 2: TGGTGGCTACGACGGGATT
# B10: GGAGGUA (DNA:RNA)
# RNA: B1 RNA with U25G, U26G, U27A, U28G, A29G, G31A
# DNA 1: CAATCTGAATTCCGGTCTCCC
# DNA 2: TGGTGGCTACGACGGGATT
# B11: UCUUUCA (DNA:RNA)
# RNA: B1 RNA with U26C, A29U, U30C, G31A
# DNA 1: CAATCTGAATTCCGGTCTCCC
# DNA 2: TGGTGGCTACGACGGGATT
# B12: GAGUAGU (DNA:RNA)
# RNA: B1 RNA with U25G, U26A, U27G, U30G, G31U
# DNA 1: CAATCTGAATTCCGGTCTCCC
# DNA 2: TGGTGGCTACGACGGGATT
# B13: GGCCCAA (DNA:RNA)
# RNA: GGGAGACCGGAAUUCAGAUUGUCCGGCCCAAUUAAAUCCCGUCGUAGCCACCA
# DNA 1: CAATCTGAATTCCGGTCTCCC
# DNA 2: TGGTGGCTACGACGGGATT
# B14: UGAGUAG (DNA:RNA)
# RNA: B13 RNA with G25U, C27A, C28G, C29U, A31G
# DNA 1: CAATCTGAATTCCGGTCTCCC
# DNA 2: TGGTGGCTACGACGGGATT
# B15: CUAUAUA (DNA:RNA)
# RNA: B1 RNA with U25C, U27A, G31A
# DNA 1: CAATCTGAATTCCGGTCTCCC
# DNA 2: TGGTGGCTACGACGGGATT
# B16: UGCACAG (DNA:RNA)
# RNA: B13 RNA with G25U, C28A, A31G
# DNA 1: CAATCTGAATTCCGGTCTCCC
# DNA 2: TGGTGGCTACGACGGGATT
# B17: GCUAAGU (DNA:RNA)
# RNA: B1 RNA with U25G, U26C, U28A, U30G, G31U
# DNA 1: CAATCTGAATTCCGGTCTCCC
# DNA 2: TGGTGGCTACGACGGGATT
# B18: UUAAACG (DNA:RNA)
# RNA: B1 RNA with U27A, U28A, U30C
# DNA 1: CAATCTGAATTCCGGTCTCCC
# DNA 2: TGGTGGCTACGACGGGATT
# B19: AUAGUGU (DNA:RNA)
# RNA: B1 RNA with U25A, U27A, U28G, A29U, U30G, G31U
# DNA 1: CAATCTGAATTCCGGTCTCCC
# DNA 2: TGGTGGCTACGACGGGATT
# B20: CACUGGC (DNA:RNA)
# RNA: B13 RNA with G25C, G26A, C28U, C29G, A30G, A31C
# DNA 1: CAATCTGAATTCCGGTCTCCC
# DNA 2: TGGTGGCTACGACGGGATT
# Target: T1, RBFOX1 RRM
# Assay: EMSA; HiTS-Eq, 1 nM pool, 10 min; buffer printed only for the single-RNA assays: 10 mM Tris pH 7.5, 150 mM NaCl, 3.4 mM EDTA, 0.001% NP-40, 30 C
# Settings: tags: His6 N-terminal (pET28a); label: 5' 32P
# How it was run: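 A pool of RNA with 7 randomized nucleotides, 5′-radiolabelled and with DNA-annealed flanks, was equilibrated at 1 nM for 10 min in 50 µL with purified RbFox RRM, wild type or mutant, across increasing protein concentrations. Free RNA was separated by 8% native PAGE, excised, reverse-transcribed, barcoded by PCR and sequenced. Relative association constants were obtained from read-count changes of each RNA species versus the control reaction and normalised to the cognate motif.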
row,Binder,binding signal
1,B1,0.0146 KA relative to UGCAUGU
2,B2,0.0104 KA relative to UGCAUGU
3,B3,0.0274 KA relative to UGCAUGU
4,B4,0.0222 KA relative to UGCAUGU
5,B5,0.0123 KA relative to UGCAUGU
6,B6,0.0121 KA relative to UGCAUGU
7,B7,0.0248 KA relative to UGCAUGU
8,B8,0.00193 KA relative to UGCAUGU
9,B9,0.016 KA relative to UGCAUGU
10,B10,0.0125 KA relative to UGCAUGU
11,B11,0.0106 KA relative to UGCAUGU
12,B12,0.00842 KA relative to UGCAUGU
13,B13,0.00717 KA relative to UGCAUGU
14,B14,0.0177 KA relative to UGCAUGU
15,B15,0.00266 KA relative to UGCAUGU
16,B16,0.017 KA relative to UGCAUGU
17,B17,0.0127 KA relative to UGCAUGU
18,B18,0.00886 KA relative to UGCAUGU
19,B19,0.0112 KA relative to UGCAUGU
20,B20,0.00998 KA relative to UGCAUGU
